Laboratory results from PMC4336329 (PLoS ONE, 2015).
Hit rate of the full screen: of about 310,000 compounds, about 14,000 (4.5%) showed an effect of 50% or more. Effects have a minus sign here. Some of the results follow. Where a SMILES comes first, the peptide text is derived from it. The star is where a group is joined. Cbz = O=C(OCc1ccccc1)*; OtBu = CC(C)(C)O*; tBu = CC(C)(C)*

What follows are compounds tested against human ether-à-go-go-related gene (hERG) potassium channel (human, UniProt Q12809) (assay: primary screen, population patch clamp on CHO cells stably expressing hERG).
Sequence of human ether-à-go-go-related gene (hERG) potassium channel (Q12809 whole entry, looked up): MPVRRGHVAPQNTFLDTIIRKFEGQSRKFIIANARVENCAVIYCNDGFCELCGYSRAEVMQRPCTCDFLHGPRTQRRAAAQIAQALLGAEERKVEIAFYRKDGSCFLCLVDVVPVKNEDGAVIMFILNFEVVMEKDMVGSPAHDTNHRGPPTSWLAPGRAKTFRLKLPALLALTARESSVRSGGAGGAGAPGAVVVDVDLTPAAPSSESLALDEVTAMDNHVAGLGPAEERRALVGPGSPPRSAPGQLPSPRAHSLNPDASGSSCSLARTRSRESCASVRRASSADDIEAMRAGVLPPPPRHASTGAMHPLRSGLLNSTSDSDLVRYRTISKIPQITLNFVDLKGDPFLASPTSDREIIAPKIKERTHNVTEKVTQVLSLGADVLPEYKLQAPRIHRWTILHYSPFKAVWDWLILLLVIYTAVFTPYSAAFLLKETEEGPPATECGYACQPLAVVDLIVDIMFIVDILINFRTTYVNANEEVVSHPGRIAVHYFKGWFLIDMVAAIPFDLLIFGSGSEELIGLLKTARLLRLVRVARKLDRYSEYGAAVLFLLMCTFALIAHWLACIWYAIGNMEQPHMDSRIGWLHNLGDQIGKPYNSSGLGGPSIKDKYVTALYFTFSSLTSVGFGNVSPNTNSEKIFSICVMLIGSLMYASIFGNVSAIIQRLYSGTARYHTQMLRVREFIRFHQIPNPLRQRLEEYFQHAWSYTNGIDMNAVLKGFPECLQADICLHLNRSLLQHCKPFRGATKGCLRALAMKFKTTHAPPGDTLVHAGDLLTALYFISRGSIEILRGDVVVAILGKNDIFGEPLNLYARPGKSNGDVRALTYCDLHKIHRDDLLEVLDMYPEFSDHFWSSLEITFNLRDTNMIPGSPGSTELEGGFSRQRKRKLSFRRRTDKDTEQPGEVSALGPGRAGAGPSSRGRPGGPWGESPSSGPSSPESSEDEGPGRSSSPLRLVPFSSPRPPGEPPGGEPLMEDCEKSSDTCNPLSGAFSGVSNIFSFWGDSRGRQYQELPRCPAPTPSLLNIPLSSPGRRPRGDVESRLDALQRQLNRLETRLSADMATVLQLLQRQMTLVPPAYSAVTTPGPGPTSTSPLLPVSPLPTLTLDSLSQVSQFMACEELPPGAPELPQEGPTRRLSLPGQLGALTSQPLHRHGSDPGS
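Note: peak tail current of the secondary pulse compared with the same well before compound.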

Row | Structure (SMILES) | hERG current change (%, negative = inhibition) at 10uM [%]
1 | CC(C)c1cn(C2OC(COC(=O)c3ccccc3)C(OC(=O)c3ccccc3)C2OC(=O)c2ccccc2)c(=O)[nH]c1=O (stereo not drawn) | 16.7
2 | Clc1ccccc1-c1nc(-c2ccc(Br)o2)no1 | 17.4
3 | CCN1CCN(C(=O)COc2ccc(S(=O)(=O)N(C)Cc3ccccc3)cc2)CC1 | -45.7
4 | CCOc1ccc(C(=O)CSCC(=O)O)cc1 | 16
5 | CN1CCN(NC(=O)CN2C(=O)S/C(=C\c3c(Cl)cccc3Cl)C2=O)CC1 | -5.45
6 | O=C(Nc1ccc(CN2CCOCC2)cc1)c1cccc(-c2cc3ccccc3oc2=O)c1 | -21.5
7 | O=C(O)C(=O)O.O=S(=O)(c1ccccc1C(F)(F)F)N1CCN(CC(O)COc2ccccc2F)CC1 (stereo not drawn) | 23
8 | Cc1ccccc1CN1CCCNC1=O | 11.5
9 | NC1=NC2(CCCCC2)N=C(Nc2ccc(F)cc2F)N1 | 4.19
10 | COc1cc(/C=C2/C(=N)N3C=CSC3=NC2=O)ccc1OCCOc1ccc(NC(C)=O)cc1 | 15.1
11 | CC(C)Oc1ccccc1/C=N/Nc1ccccc1[N+](=O)[O-] | 2.49
12 | Cc1nc2c3ccccc3nc(SCC(=O)c3ccc(Cl)cc3)n2n1 | 2.48
13 | c1ccc2[nH]c(NC3=NCCC3)nc2c1 | 9.18
14 | Cc1[nH]c2ccccc2c(=O)c1CN(C)Cc1ccccc1 | -22.5
15 | CCCOc1ccc(C(=O)Nc2ccc3c(c2)OCO3)cc1 | 16.1
16 | COCCn1c(=O)[nH]c2cc(C(=O)Nc3cc(C)cc(C)c3)ccc2c1=O | 26.3
17 | Cc1c(Cl)cccc1S(=O)(=O)Nc1ccnn1C | 20.5
18 | CC1CCc2c(sc3ncnc(NCCN4CCOCC4)c23)C1 (stereo not drawn) | -54.6
19 | O=C(CCNC(=O)c1ccccc1Cl)Nc1ccc(Br)c(C(F)(F)F)c1 | 22.5
20 | COc1ccc(C(=O)Nc2ccc(NC(C)=O)cc2)cc1S(=O)(=O)N(C)Cc1ccccc1 | 10.3
21 | Cc1cc(C)n(C(=O)CNC(=O)c2ccc(C(C)(C)C)cc2)n1 | 2.45
22 | CSc1oc(-c2ccco2)nc1S(=O)(=O)c1ccc(Br)cc1 | -6.38

Row | Structure (SMILES) | hERG current change (%, negative = inhibition) at 10uM [%]
23 | Cl.N[C@@H](Cc1c[nH]c2ccccc12)c1nnc(SCc2ccccc2F)o1 | -19.9
24 | O=c1c(Cc2ccc(F)cc2)c(O)ccn1CC1CCCO1 (stereo not drawn) | 62.1
25 | COc1ccc(NC(=O)Cc2cccc3ccccc23)cc1 | 9.28
26 | Cc1ccnc2c(N3C(=O)C4C5c6ccccc6C(c6ccccc65)C4C3=O)cccc12 (stereo not drawn) | -2.78
27 | O=S(=O)(c1ccccc1)c1nc(-c2ccco2)oc1NCCN1CCOCC1 | -32.2
28 | Cc1onc(-c2ccccc2Cl)c1-c1nc(-c2ccncc2)no1 | -10.9
29 | O=C(Nc1ccc(F)c(Cl)c1)N1CCCCCC1 | 6.06
30 | O=C(O)c1cccc(S(=O)(=O)N(Cc2ccccc2)c2ccccc2Cl)c1 | 13.8
31 | CN(C)C(=O)c1cn(-c2ccccc2)c(=O)c2ccccc12 | 16.1
32 | CCC(NC(=O)c1ccccc1NC(=O)c1ccc(C)cc1)C(=O)O (stereo not drawn) | -3.27
33 | CCN(CC)S(=O)(=O)c1cc(NC(=O)CCCOc2ccc(C(C)=O)cc2)ccc1C | -29.9
34 | NC(=O)c1ccccc1NC(=O)CC1(CC(=O)O)CCCC1 | 11.7
35 | Cc1ccc(-c2nc(NCc3cccnc3)c3ccccc3n2)cc1 | 0.555
36 | COC(=O)c1c(NC(=O)COC(=O)CCNS(=O)(=O)c2ccccc2)sc(C)c1C | 14.7
37 | Nc1nc(SCC(=O)c2cccc([N+](=O)[O-])c2)n[nH]1 | -7.48
38 | C=C(C)CSc1cc(C)c(C#N)c2nc3ccccc3n12 | -31.5
39 | CCOC(=O)c1c(N)n(Cc2ccco2)c2nc3ccccc3nc12 | -61.9
40 | CC1CC2=C(NC(=S)NC2c2ccc(F)cc2)/C(=C/c2ccc(F)cc2)C1 (stereo not drawn) | -3.78
41 | CC12CCC(C(=O)N3CCCCCC3)(OC1=O)C2(C)C (stereo not drawn) | 13.1
42 | Cc1cccc(C)c1NC(=O)CNC(=O)CCNC(=O)c1ccco1 | 2.84
43 | CC(NC(=O)OCc1ccccc1)C(=O)NCC(=O)NC(Cc1ccc(OC(C)(C)C)cc1)C(=O)OC(C)(C)C (stereo not drawn) (Cbz-Ala-Gly-Tyr(tBu)-OtBu; configuration not given here) | -8.78
44 | O=C(CSc1nnc(CNC(=O)c2c(F)cccc2F)o1)NCc1ccccc1 | 9.56

Row | Structure (SMILES) | hERG current change (%, negative = inhibition) at 10uM [%]
45 | COC(=O)c1ccccc1NC(=O)Nc1nnc(N2CCCCC2C)s1 (stereo not drawn) | 5
46 | CCOC(=O)CCC(NC(=O)c1ccc(NCN2C(=O)CCC2=O)cc1)C(=O)OCC (stereo not drawn) | 7.22
47 | COc1cc(/C=C/c2ccc3cccc(O)c3n2)cc(OC)c1OC | 14.6
48 | Cc1cc[n+](Cc2ccc([N+](=O)[O-])cc2)cc1.[Br-] | -3.66
49 | Cc1cnc(C(=O)OCC(=O)c2ccc(F)cc2)cn1 | 8.42
50 | O=C(Cn1nnc2ccccc21)C1CC1 | 3.03
51 | O=C(c1c(F)cccc1Cl)N1CCN(c2ccccn2)CC1 | 4.41
52 | O=C(CCCCCN1C(=O)[C@@H]2Cc3ccccc3CN2C1=O)NCCc1ccccc1 | -35.7
53 | Cc1ccc(N(Cc2ccccc2)C(=O)c2ccc(F)c(S(=O)(=O)N3CCOCC3)c2)cc1 | -82.7
54 | Nc1cc(=O)nc(SCC(=O)N(C2CCCCC2)C2CCCCC2)n1-c1ccccc1 | 9.2
55 | COCCOC(=O)C1=C(C)NC2(O)c3ccccc3C(=O)C12O (stereo not drawn) | 24.4
56 | Cc1ccc(C)c(OCc2cc(C(=O)NC3CCN(Cc4ccccc4)CC3)no2)c1 | -41.1
57 | Cc1cc2nnc(SCC(=O)NCc3ccco3)n2c2ccccc12 | 14.4
58 | O=C(NCc1ccncc1)c1cc(C(=O)C2CC2)c[nH]1 | 21.6
59 | N#C/C(=C\c1cccnc1)c1ccccc1[N+](=O)[O-] | 4.04
60 | COc1ccc(C2(O)CCN(C(=O)Cc3cccnc3)CC2)cc1 | -12.6
61 | COc1ccc(-c2csc(NC(=O)COc3ccc(N(C)S(=O)(=O)c4ccc(C)cc4)cc3)n2)cc1 | 3.24
62 | CCc1ccc(C(=O)OCC(=O)c2c(N)n(CC(C)C)c(=O)n(C)c2=O)cc1 | -0.249
63 | Cc1ccc(CNC(=O)c2ccc(NC(=O)CCS(=O)(=O)c3cccs3)cc2)cc1 | 9.58
64 | Cl.O=C(CN1CCCC1)NCC1(c2ccccc2)CCOCC1 | 6.69
65 | O=C(/C=C/c1ccccc1)NCCC1=CCCCC1 | 6.81
66 | COc1ccc(NC2=CC(=O)N(C)C2=O)cc1 | 1.61

Row | Structure (SMILES) | hERG current change (%, negative = inhibition) at 10uM [%]
67 | O=C(c1cn(-c2ccccc2)nc1-c1ccc(Br)cc1)N1CCOCC1 | -5.61
68 | COc1ccc(-c2cc(C(F)(F)F)nc(N3CCN(C)CC3)n2)cc1 | 3.53
69 | S=C(NCc1ccco1)N/N=C/c1cccnc1 | -4.64
70 | COc1ccc(/C=C(/C(=O)Nc2ccccc2C(=O)NC(C)C)c2ccccc2)cc1 | 9.52
71 | CC1CC(C)CN(S(=O)(=O)c2ccc(C(=O)N3CCCC3)cc2)C1 (stereo not drawn) | -25.2
72 | Cc1ccc(NC(=O)CCNS(=O)(=O)c2cccc3nonc23)cc1Cl | 5.41
73 | O=C(N/N=C/C=C/c1ccccc1)c1cc(C2CC2)[nH]n1 | -15
74 | Cc1cccc2[nH]c(CN(C)C(=O)C3CCC(=O)N(C4CC4)C3)nc12 (stereo not drawn) | 17.5
75 | O=C(COc1ccccc1)N1CCN(C(=O)c2cccs2)CC1 | -13.4
76 | CSc1cc(-c2ccco2)oc1C(=O)c1ccco1 | 0.806
77 | CC1CC(C)CN(C(=O)C2CCCN(c3ncnc4c3nc3n4CCCCC3)C2)C1 (stereo not drawn) | -35.8
78 | COc1ccc(C(Nc2ccc(S(=O)(=O)N3CCOCC3)cc2)C(=O)NCCC(C)C)cc1OC (stereo not drawn) | -2.25
79 | CCOc1c(N2CC(C)OC(C)C2)c(=O)c1=O (stereo not drawn) | 10.2
80 | Cc1ccc(-c2csc(NC(=O)c3cccc(N4C(=O)CCC4=O)c3)n2)o1 | -8.13
81 | CCc1cccc2c(C(=O)COC(=O)/C=C/c3ccc(O)c(OC)c3)c[nH]c12 | -0.674
82 | O=C(CNC(=O)c1ccc(Cl)cc1Cl)OCCCn1c(=O)[nH]c2ccccc21 | -28
83 | O=C(CCc1ccc(S(=O)(=O)N2CCOCC2)cc1)Oc1ccccc1 | -9.71
84 | COc1ccc(C(=O)N2CCN(CCNC(=O)C(=O)Nc3ccc(F)cc3)CC2)cc1 | -69.6
85 | O=C(O)Cn1nnc(-c2cccs2)n1 | 17.7
86 | Cc1ccc(S(=O)(=O)N2CCN(C(=O)CN3CCCCC3)C2)cc1 | -3.76
87 | CN(C)C(=O)CSc1ncccc1-c1nc2ccccc2[nH]1 | 13.1
